Among the data in article PMC7764236 are binding values, retold here.

These are yes or no findings as the source states them, for the method shown. For some assays here: In cells and extracts the contact can be indirect. Some results given as binding are weak or reduced against the parent protein; the word gives no strength. Sequences can lack the tags named with a protein.

Test [1] has as its target T1, FLAG-tagged UBAC1 (human) (UniProt Q9BSL1).
T1 sequence: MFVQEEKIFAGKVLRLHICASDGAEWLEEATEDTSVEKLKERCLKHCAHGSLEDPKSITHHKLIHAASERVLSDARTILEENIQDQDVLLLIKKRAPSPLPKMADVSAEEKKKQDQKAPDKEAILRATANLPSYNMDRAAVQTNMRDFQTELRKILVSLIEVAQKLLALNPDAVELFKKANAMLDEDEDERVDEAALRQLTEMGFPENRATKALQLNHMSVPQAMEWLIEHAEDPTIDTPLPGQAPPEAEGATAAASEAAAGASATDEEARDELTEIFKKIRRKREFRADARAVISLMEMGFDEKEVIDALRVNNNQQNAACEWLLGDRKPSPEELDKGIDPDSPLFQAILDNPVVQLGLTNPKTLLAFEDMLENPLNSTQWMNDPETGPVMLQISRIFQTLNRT
Kind of test: co-IP; HEK293T co-transfected with FLAG-UBAC1 and HA-tagged CARMA2 polypeptides, 24 h; lysis buffer 150 mM NaCl, 20 mM Hepes pH 7.4, 1% Triton X-100, 10% glycerol; anti-FLAG immunoprecipitation, immunoblot.

Test [2] concerns the target T2, GST-UBAC1 fusion protein (human) (UniProt Q9BSL1).
T2 sequence: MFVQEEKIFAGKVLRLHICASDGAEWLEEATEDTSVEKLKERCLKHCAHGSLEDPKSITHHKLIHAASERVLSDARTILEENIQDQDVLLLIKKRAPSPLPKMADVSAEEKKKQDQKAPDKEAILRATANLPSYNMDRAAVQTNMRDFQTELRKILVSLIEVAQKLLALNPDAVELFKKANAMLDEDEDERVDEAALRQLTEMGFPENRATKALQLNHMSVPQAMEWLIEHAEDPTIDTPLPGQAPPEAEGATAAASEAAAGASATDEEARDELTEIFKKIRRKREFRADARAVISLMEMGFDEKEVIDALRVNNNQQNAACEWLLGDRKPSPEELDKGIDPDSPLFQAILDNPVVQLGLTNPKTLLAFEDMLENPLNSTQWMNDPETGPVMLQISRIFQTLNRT
Kind of test: pull-down; Sepharose-bound GST-UBAC1 (1.5 μg) or GST mixed with HaCaT cell lysates overnight at 4 °C; blot with anti-CARMA2; only the target purified.

The target of test [3] is T3, TANK (UniProt Q92844).
T3 sequence: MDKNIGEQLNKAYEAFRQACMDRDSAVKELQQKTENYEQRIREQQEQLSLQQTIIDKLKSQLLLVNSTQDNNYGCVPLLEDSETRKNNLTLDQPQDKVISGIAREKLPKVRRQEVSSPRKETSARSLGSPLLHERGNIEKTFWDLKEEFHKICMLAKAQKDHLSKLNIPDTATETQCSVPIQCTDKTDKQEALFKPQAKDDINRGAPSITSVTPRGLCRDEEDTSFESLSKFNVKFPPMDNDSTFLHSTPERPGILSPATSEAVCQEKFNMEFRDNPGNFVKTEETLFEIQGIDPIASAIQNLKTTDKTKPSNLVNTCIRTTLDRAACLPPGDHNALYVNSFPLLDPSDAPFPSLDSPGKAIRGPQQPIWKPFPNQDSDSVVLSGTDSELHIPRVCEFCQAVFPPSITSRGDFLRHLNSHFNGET
The test can be described thus: co-IP; HEK293 cells transfected with TANK and UBAC1, 24 h; lysates immunoprecipitated with anti-HA antibody, immunoblot. For orientation: Immunoblotting shows a protein as a band on a membrane.

The target of test [4] is CARMA2sh fused to the DNA binding domain of transcription factor GAL4 (human) (UniProt Q9BXL6). Kind of test: two-hybrid; individual plasmid transformations in yeast AH109; growth on selective media, ten independent transformants; + growth within 36 h, - no growth within 5 days.
Test [5] shares this target. The test can be described thus: two-hybrid; library screen: GAL4DBD-CARMA2sh bait (pGBKT7) against a human peripheral blood leucocyte cDNA library in pACT2, yeast AH109; selective growth and β-galactosidase reporter.

For the molecule “CARMA2shE142G, HA-tagged (from UniProt Q9BXL6-2 1-740)”, in test [1], the binding entry was “binds”.

On to “CARMA2CARD (CARD domain, CARMA2sh 1-123), HA-tagged (from UniProt Q9BXL6-2 1-123) (domain or fragment)”, for which the binding result in test [1] is reported as “no binding”.

Turning to “CARMA2cl, alternatively spliced isoform, HA-tagged (from UniProt Q9BXL6-3 1-434)”, the binding entry in test [1] was “binds”.

Turning to “endogenous CARMA2sh (from UniProt Q9BXL6-2 1-740)”, in test [2], the binding result is “binds”.

As to “HA-tagged CARMA2sh (from UniProt Q9BXL6-2 1-740)”, in test [1], the binding entry is given as “binds”.

Regarding “CARMA2shE138A, HA-tagged (from UniProt Q9BXL6-2 1-740)”, in test [1], the binding result is given as “binds”.

With “CARMA2PDZ (PDZ domain, CARMA2sh 550-690), HA-tagged (from UniProt Q9BXL6-2 550-690) (domain or fragment)”, the binding entry in test [1] is “binds”.

B1: CARMA2CCL (coiled coil, CARMA2sh 123-550), HA-tagged (domain or fragment, UniProt Q9BXL6-2 123-550)
chain: KLTECLAGAIGSLQEELNQEKGQKEVLLRRCQQLQEHLGLAETRAEGLHQLEADHSRMKREVSAHFHEVLRLKDEMLSLSLHYSNALQEKELAASRCRSLQEELYLLKQELQRANMVSSCELELQEQSLRTASDQESGDEELNRLKEENEKLRSLTFSLAEKDILEQSLDEARGSRQELVERIHSLRERAVAAERQREQYWEEKEQTLLQFQKSKMACQLYREKVNALQAQVCELQKERDQAYSARDSAQREISQSLVEKDSLRRQVFELTDQVCELRTQLRQLQAEPPGVLKQEARTREPCPREKQRLVRMHAICPRDDSDCSLVSSTESQLLSDLSATSSRELVDSFRSSSPAPPSQQSLYKRVAEDFGEEPWSFSSCLEIPEGDPGALPGAKAGDPHLDYELLDTADLPQLESSLQPVSPGRLDV
Turning to B1, the binding result in test [1] is “binds”.

B2: FLAG-tagged UBAC1 (protein, UniProt Q9BSL1 1-405)
chain: MFVQEEKIFAGKVLRLHICASDGAEWLEEATEDTSVEKLKERCLKHCAHGSLEDPKSITHHKLIHAASERVLSDARTILEENIQDQDVLLLIKKRAPSPLPKMADVSAEEKKKQDQKAPDKEAILRATANLPSYNMDRAAVQTNMRDFQTELRKILVSLIEVAQKLLALNPDAVELFKKANAMLDEDEDERVDEAALRQLTEMGFPENRATKALQLNHMSVPQAMEWLIEHAEDPTIDTPLPGQAPPEAEGATAAASEAAAGASATDEEARDELTEIFKKIRRKREFRADARAVISLMEMGFDEKEVIDALRVNNNQQNAACEWLLGDRKPSPEELDKGIDPDSPLFQAILDNPVVQLGLTNPKTLLAFEDMLENPLNSTQWMNDPETGPVMLQISRIFQTLNRT
Turning to B2, the binding result in test [3] is “binds”.

B3: UBAC1/KPC2 (amino acids 99-404) fused to the transcription activation domain of GAL4 (domain or fragment, UniProt Q9BSL1 99-404)
chain: PLPKMADVSAEEKKKQDQKAPDKEAILRATANLPSYNMDRAAVQTNMRDFQTELRKILVSLIEVAQKLLALNPDAVELFKKANAMLDEDEDERVDEAALRQLTEMGFPENRATKALQLNHMSVPQAMEWLIEHAEDPTIDTPLPGQAPPEAEGATAAASEAAAGASATDEEARDELTEIFKKIRRKREFRADARAVISLMEMGFDEKEVIDALRVNNNQQNAACEWLLGDRKPSPEELDKGIDPDSPLFQAILDNPVVQLGLTNPKTLLAFEDMLENPLNSTQWMNDPETGPVMLQISRIFQTLNR
As to B3, the binding entry in test [4] and in test [5] was “binds” in each case.
